Among all 310,000 compounds or so, about 14,000 (4.5%) showed an effect of 50% or more. Effects have a minus sign here. The list shows a part of the results.
target: human ether-à-go-go-related gene (hERG) potassium channel (human, UniProt Q12809); test: primary screen, population patch clamp on CHO cells stably expressing hERG
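Also: peak tail current of the secondary pulse compared with the same well before compound.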

human ether-à-go-go-related gene (hERG) potassium channel, sequence (Q12809 whole entry, looked up): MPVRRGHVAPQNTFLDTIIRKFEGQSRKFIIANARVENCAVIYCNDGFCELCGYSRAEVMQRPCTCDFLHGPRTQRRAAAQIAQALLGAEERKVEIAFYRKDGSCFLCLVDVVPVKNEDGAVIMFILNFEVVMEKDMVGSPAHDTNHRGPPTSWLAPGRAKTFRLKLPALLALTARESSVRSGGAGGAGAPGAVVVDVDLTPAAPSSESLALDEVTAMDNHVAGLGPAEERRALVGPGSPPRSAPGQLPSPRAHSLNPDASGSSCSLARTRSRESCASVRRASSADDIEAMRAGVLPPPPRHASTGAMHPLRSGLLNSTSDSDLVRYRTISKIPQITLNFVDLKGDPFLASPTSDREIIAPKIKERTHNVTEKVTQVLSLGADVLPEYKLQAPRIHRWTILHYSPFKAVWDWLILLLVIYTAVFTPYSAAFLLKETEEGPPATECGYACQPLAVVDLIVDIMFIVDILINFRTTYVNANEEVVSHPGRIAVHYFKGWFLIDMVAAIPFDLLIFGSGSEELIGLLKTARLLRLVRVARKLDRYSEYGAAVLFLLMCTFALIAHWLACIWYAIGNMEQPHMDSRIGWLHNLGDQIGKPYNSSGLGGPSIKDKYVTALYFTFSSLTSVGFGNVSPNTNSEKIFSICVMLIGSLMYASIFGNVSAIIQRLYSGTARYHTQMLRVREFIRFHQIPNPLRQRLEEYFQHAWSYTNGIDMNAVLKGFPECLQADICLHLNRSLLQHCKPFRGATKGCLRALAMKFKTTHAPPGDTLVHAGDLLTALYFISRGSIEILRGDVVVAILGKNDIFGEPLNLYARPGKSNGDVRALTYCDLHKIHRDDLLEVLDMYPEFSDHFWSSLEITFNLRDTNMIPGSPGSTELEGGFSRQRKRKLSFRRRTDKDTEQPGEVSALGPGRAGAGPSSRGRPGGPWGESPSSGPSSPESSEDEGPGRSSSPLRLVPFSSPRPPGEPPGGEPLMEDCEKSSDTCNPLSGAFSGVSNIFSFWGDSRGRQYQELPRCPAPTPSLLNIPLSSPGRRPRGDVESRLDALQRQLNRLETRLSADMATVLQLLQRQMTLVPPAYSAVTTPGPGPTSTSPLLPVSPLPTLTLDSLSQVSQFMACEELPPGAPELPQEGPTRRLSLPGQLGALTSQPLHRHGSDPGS

SMILES | hERG current change (%, negative = inhibition) at 10uM [%]
COc1ccc(-n2nc(C(=O)NCC(=O)N3CCC(C(N)=O)CC3)c3ccccc3c2=O)cc1OC | 10.7
N#CCc1c(C#N)c(N)nc(N2CCN(S(=O)(=O)c3ccccc3)CC2)c1C#N | -0.357
CCN(CC)c1nc2c(c(=O)[nH]c(=O)n2C)n1CCCc1ccccc1 | -45.3
COc1ccc(CNS(=O)(=O)c2ccc3c(c2)CCN3C(=O)C2CC2)cc1 | -7.39
COc1cccc(CNC(=S)Nc2cc(C)cc(C)c2)c1 | 6.62
COC(=O)c1[nH]c2cc(C)ccc2c1NC(=O)CN1CCN(C(=O)c2ccco2)CC1 | -54.3
Cn1ncc(N=Cc2ccccc2O)c1C(=O)N1CCOCC1 | 2.23
O=[N+]([O-])c1ccccc1S(=O)(=O)c1ccccc1[N+](=O)[O-] | 15.6
COc1ccccc1-c1cc(C(=O)NCCN2CCOCC2)no1 | 0.284
Cc1cc(C(=O)NNc2cc(Cl)ccc2Cl)no1 | 6.55
CC(C)C(=O)NC(=S)Nc1c(Cl)ccc2nsnc12 | -7.83
COc1ccc(OC)c(NC(=O)CC2SC(=Nc3ccccc3)N(CCc3ccccn3)C2=O)c1 (stereo not drawn) | -13.6
FC(F)(F)c1ccccc1NC(=S)N1CCCCCC1 | 19.3
O=C(CNC(=O)C1CCCC1)Nc1ccccc1Br | -1.32
COc1ccc(CCN=C2SCC(=O)N2Cc2ccccc2)cc1OC | -7.84
Cc1ccc(/C=N/NC(=O)c2cccc(S(=O)(=O)Nc3ccccc3Cl)c2)s1 | -22
COc1ccc(C2C3=C(CCCC3=O)Nc3nc(C(F)(F)F)nn32)c(OC)c1OC (stereo not drawn) | -2.33
CC(NC(=O)COc1ccccc1)C(=O)N1CCN(c2ccccc2)CC1 (stereo not drawn) | -20.7
O=C(O)c1ccc2c(=O)n3c(nc2c1)/C(=C/c1cccc(Cl)c1Cl)CCCC3 | 13.3
CCOc1ccc(C(=O)NNC(=O)CCNC(=O)c2ccco2)cc1OC | 12.9
CCCCn1c(N)c(N(CC)C(=O)c2ccc(N3CCCC3=O)cc2)c(=O)[nH]c1=O | 7.65
Cc1cc(N2C(=O)c3ccc(C(=O)Nc4ccccc4O)cc3C2=O)no1 | 14.1

SMILES | hERG current change (%, negative = inhibition) at 10uM [%]
O=C(Nc1ccc(O)c2c(=O)cc(-c3ccccc3Cl)oc12)c1ccccc1Cl | -0.578
CCN1C(=O)/C(=C/N2CC(C)CC(C)C2)SC1=S (stereo not drawn) | -4.81
CCCn1c(N2CCN(C(=O)NCc3ccccc3)CC2)nc2ccccc21 | -67.9
CCN(CC(=O)Nc1ccc(NC(C)=O)cc1)C(=O)c1cc2ccccc2oc1=O | 9.72
CC(Oc1ccccc1)C(=O)Nc1ccc(S(=O)(=O)N2CCN(C)CC2)cc1 (stereo not drawn) | -0.932
Cc1cnc(C(=O)Nc2cc(F)ccc2C)cn1 | 25.5
O=C(COC(=O)Cc1c(Cl)cccc1Cl)Nc1ccc(OC(F)(F)F)cc1 | -6.15
O=S(=O)(NC(=NC1CCCCC1)c1ccccc1)c1ccc(F)cc1 | -13.1
COc1cccc(OCC(=O)NC2CCCCCC2)c1 | -4.24
COc1ccc2[nH]c3c(NCCCN4CCCC4=O)ncnc3c2c1 | -14.6
CC1CC(=O)N(CC(=O)NCc2ccc3c(c2)OCO3)c2ccccc2S1 (stereo not drawn) | -7.68
O=C(NCc1cccs1)c1cc(-c2ccccc2)nc2ccccc12 | -27.4
CCOc1cccc(CNn2cnnc2)c1OCc1ccccc1 | -20.2
O=C(O)c1cc(NCc2cccs2)ccc1N1CCOCC1 | -6.75
CC(=O)N(C)c1ccc(NC(=O)c2ccco2)cc1 | 7.79
CCOC(=O)C1=C(C)N(C)C(C)=C(C(=O)OCC)C1c1cccnc1 | 6.97
Cc1ccc(CSc2nnc(-c3ccc(NS(=O)(=O)c4ccccc4)cc3)o2)cc1 | 11.8
O=C(CCc1nc(-c2ccccc2F)no1)Nc1ccc(Oc2ccccc2)cc1 | 12.7
COc1cc(NC(=O)CN2C(=O)CSc3ccc(S(=O)(=O)N4CCCC4)cc32)cc(OC)c1 | 3.57
COc1ccc(-c2nn3c(C4CCCCC4)nnc3s2)cc1OC | -15.2
CN(C)S(=O)(=O)c1ccc(Cl)c(C(=O)Nc2cccc([N+](=O)[O-])c2)c1 | -16
CCOC(=O)c1cc2c(=O)n3ccccc3nc2n(Cc2ccco2)c1=NC(=O)c1cccnc1 | -37.4

SMILES | hERG current change (%, negative = inhibition) at 10uM [%]
CC(=O)c1cccc(NC(=O)N2C3CCCC2CC(NC(=O)C2CC2)C3)c1 (stereo not drawn) | 17.2
COc1cc(C(=O)N(C)CC(=O)Nc2cccc(F)c2)ccc1OCc1ccccc1 | -12.6
C=CCOC(=O)c1cn(CC)c2nc(C)ccc2c1=O | -5.77
CC(C)(C)N(CC#CCC(O)(c1ccccc1)C1CCCC1)CCO (stereo not drawn) | -1.14
CCc1cc(C(c2ccc(F)cc2)N2CCOCC2)c(NC(=O)c2ccccc2)s1 (stereo not drawn) | 2.1
C=CCn1c(SCc2ccc(C(=O)NCCO)cc2)nc2ccccc2c1=O | -12.8
Nc1cc(=O)[nH]c(=O)n1CC1CC1 | 22
C=CCn1c(N)c(C(=O)NCC2CCCO2)sc1=S (stereo not drawn) | 1.39
COc1ccc(CC(=O)N2CCN(c3ccccn3)CC2)cc1OC | 8.9
CN1CCN(C(=O)CSc2ccc(C(F)(F)F)cc2[N+](=O)[O-])CC1 | -10.2
Cc1ccc(S(=O)(=O)N(CC(=O)Nc2cccnc2)c2cccc([N+](=O)[O-])c2)cc1 | -56.6
Cn1cc(/C=N/NC(=O)c2ccc(C#N)cc2F)c2ccccc21 | 7.36
COc1ccccc1NS(=O)(=O)c1cccc(C(=O)N/N=C/c2ccc(N3CCOCC3)cc2)c1 | -8.32
CCN1CCN(CCCN(Cc2ccco2)C(=S)Nc2ccc(Cl)cc2)CC1 | -64.2
COc1ccc(-c2noc(C3CCCN(C(=O)c4cccc(C)c4)C3)n2)cc1 (stereo not drawn) | 5.57
COc1cc(Cl)c(C)cc1NC(=O)c1cccc(OC)c1OC | 3.22
O=C(COC(=O)CNC(=O)c1ccccc1)Nc1ccc(Cl)cc1C(F)(F)F | -3.91
COc1ccc(C#Cc2c(-c3ccsc3)oc3ccc(N4CCOCC4)cc23)cc1 | 7.27
COc1cccc(NC(=O)Cc2ccc3ccccc3c2)c1 | -7.16
COC(=O)Cc1ccc(NC(=O)c2ccc(NC(=O)c3ccco3)cc2)cc1 | 16.7
Fc1ccc(-c2[nH]ncc2-c2nnnn2-c2ccccc2)c(F)c1 | -10.6
OCC1(Cc2ccccc2)CCCN(Cc2cn[nH]c2-c2ccccc2)C1 (stereo not drawn) | -16.4

SMILES | hERG current change (%, negative = inhibition) at 10uM [%]
COc1cccc(CN2CCNC(=O)C2CC(=O)N(C)C2CCCCC2)c1 (stereo not drawn) | -7.2
Cc1cc(CN(C)C(=O)C2CCC(=O)N(CCc3cccc(F)c3)C2)on1 (stereo not drawn) | 9.94
Cc1ccc2c(CC(=O)Nc3sccc3C(N)=O)coc2c1 | -0.97
COc1ccc(CNC(=O)c2c(F)c(F)c(F)c(F)c2F)cc1 | -22.3
COC(=O)c1cn(NC(=O)c2cccc(N(C)C)c2)c(=O)c2ccccc12 | 12.9
Cc1cc(O)c2c(c1)C(O)(C1OC(CO)C(O)C(O)C1O)c1cccc(O)c1C2=O (stereo not drawn) | 8.22
CN1/C(=C\C=[N+](C)c2ccccc2)C(C)(C)c2ccccc21.[I-] | -38.8
CCCCN(C(=O)c1[nH]c(C)c(C(=O)OCC)c1C)c1c(N)n(CCCC)c(=O)[nH]c1=O | -13.7
CC(C)(C)OC(=O)N1CCC(NC(=O)c2nc[nH]c2C(=O)NCc2ccccc2)CC1 | 4.1
COc1ccc(/C=C/C(=O)O)cc1O | 14.2
O=C1C2=C(CCCC2)C(=O)N1c1cccc(OCCBr)c1 | 9.89
CCOc1cc(NC2CS(=O)(=O)CC2O)c(OCC)cc1NC(=O)c1ccccc1 (stereo not drawn) | 5.95
O=S1(=O)CCOC[C@H](CC2CCCCC2)N1Cc1cccc(Cl)c1 | -13.6
CCCCc1ccc(NC(=O)CSc2nc(=O)n3cc(C)ccc3n2)cc1 | 7.42
Cc1ccc(S(=O)(=O)N(CC(=O)N2CCN(c3ccccc3F)CC2)C2CCCCC2)cc1 | -5.01
COc1cccc(C(=O)CSc2nnc(COc3cccc4cccnc34)o2)c1 | 3.73
COc1ccc(Cc2nnc(Nc3ccccc3)s2)cc1Br | 13.9
c1cncc(-c2nnc(SCc3cccc4ccccc34)o2)c1 | -31.8
CCCCn1c(SCC(=O)Nc2cccc(C)n2)nnc1-c1ccco1 | -76
CC(=O)c1cnc(Nc2cccc(C)c2)s1 | 20.5
O=C1CC(c2ccccc2)c2ccc(O)cc2O1 (stereo not drawn) | 11.7

Source: publication PMC4336329 (PLoS ONE, 2015)
